Laboratory results: PubChem BioAssay AID686979 (National Center for Advancing Translational Sciences (NCATS), 2013)
Several values for one entry are separate records, joined by “and”; a condition that tells them apart may be missing. Identical values can stand only once. Among all 420,000 compounds or so, about 50,000 (12%) were called active. The inconclusive results got no clear call from the source; some entries with a clear call stand among them for comparison. The call rests on the fitted dose curve; in most records, active means well fitted inhibition curve with a large enough effect; inconclusive means small, poorly fitted or top-dose-only effect; inactive means flat fitted curve, though single readings scatter. Where the call is inconclusive, the potency comes from a doubtful curve fit.

Assay: qHTS for Inhibitors of human tyrosyl-DNA phosphodiesterase 1 (TDP1): qHTS in cells in presence of CPT; further: nearly all actives have a fitted effect of over 55% in size
Conditions: chicken DT40 Tdp1-/-;hTDP1 cells + 20 nM CPT, ATP luminescence, 48 h; activity change, negative = growth inhibition: at 46.2 µM (top of the series) unless noted
Summary of the method: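 Chicken DT40 Tdp1-/- cells stably complemented with human TDP1 were seeded at 400 cells/well in medium containing 20 nM camptothecin, exposed to pin-transferred compounds, and grown at 37 °C for at least 48 hr. Viability was read as ATP luminescence.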
On the % scale 0 is the no-effect control and ±100 the full control effect; potency means the concentration at half of the fitted maximal effect; tags describe the fitted curve by direction and shape.

For `COc1ccccc1N1CCN(S(=O)(=O)c2ccc(-n3cnnn3)cc2)CC1`, which Potency is on record?
The Potency was inconclusive: 23.1 µM [inhibitor, single point] and inconclusive: 13 µM [inhibitor, single point].

For `CC(=O)Nc1ccc(Nc2nc(-c3cc4ccccc4oc3=O)cs2)cc1`, which Potency is on record?
The Potency was active: 8.2 µM.

With `CC(C)c1ccc(/C=C/C(=O)NCCC2=CCCCC2)cc1` as the compound, how does the Potency read?
The Potency was inconclusive: 18.4 µM [inhibitor, single point].

Which Potency does the source give for `Cc1nn(CCC(=O)O)c2nc(-c3cccnc3)cc(C(F)(F)F)c12` here?
Its Potency is inconclusive: 20.6 µM [inhibitor, single point].

Which Potency does the source give for `Nc1cccc2c(=O)c3ccccc3[nH]c12` here?
The Potency was active: 13 µM.

For `CC(=O)NC(c1cccc(F)c1)c1nc(-c2cc(F)cc(Cl)c2)cs1` (stereo not given), which Potency is on record?
Its Potency is “inactive”.

Which Potency does the source give for `Cc1cc(NC(=O)C(C)SCC(=O)Nc2nc3c(F)cc(F)cc3s2)no1` (stereo not given) here?
The Potency was “inactive”.

For `Cc1ccc(C)c(S(=O)(=O)N2CCN(C(=O)c3ccc(-n4cncn4)c([N+](=O)[O-])c3)CC2)c1`, which Potency is on record?
The Potency was inconclusive: 25.9 µM [inhibitor, single point].

With `COC(=O)c1cccc(Nc2nc3ccccc3nc2C)c1` as the compound, how does the Potency read?
Its Potency is active: 18.4 µM.

Which Potency does the source give for `CC(=O)Nc1cccc(NC(=O)Cc2csc(COc3cccc(C)c3)n2)c1` here?
The Potency was active: 14.6 µM.

For `COc1ccc(CC(=O)N2CCN(c3ccc(C4=NNC(=O)CC4C)cc3)CC2)cc1` (stereo not given), which Potency is on record?
The Potency was inconclusive: 25.9 µM [inhibitor, single point].

For `CO[C@H]1CN(C)C(=O)c2cc(NS(=O)(=O)c3ccccc3)ccc2OC[C@@H](C)N(Cc2ccccn2)C[C@@H]1C`, which Potency is on record?
The Potency was “inactive”.

With `CCOC(=O)N1CCC(NC(=O)c2cc(-c3ccc(OC)cc3)nc3ccccc23)CC1` as the compound, how does the Potency read?
Its Potency is inconclusive: 20.6 µM [inhibitor, single point].

For `O=C(Nc1ccccc1N(C(=O)c1ccco1)S(=O)(=O)c1cccs1)c1ccco1`, which Potency is on record?
Its Potency is inconclusive: 29.1 µM [inhibitor, single point].

For `Cc1cc(C(C)(C)C)ccc1OCCn1ccnc1`, which Potency is on record?
The Potency was inconclusive: 35.5 µM [inhibitor, single point].

For `O=C(NC1CCCC1)C(C1CC1)n1c(C2CCCC2)nc2ccccc21` (stereo not given), which Potency is on record?
Its Potency is inconclusive: 23.1 µM [inhibitor, single point].

With `CCOc1ccc(C(=O)Nc2ccc3c(c2)N(C(C)=O)CCC3)cc1OCC` as the compound, how does the Potency read?
The Potency was inconclusive: 29.1 µM [inhibitor, single point].

With `CCCOC(=O)c1c(NC(=O)C2CCCO2)sc(C(=O)OC)c1C` (stereo not given) as the compound, how does the Potency read?
The Potency was inconclusive: 20.6 µM [inhibitor, single point].

For `COc1cc(C)ccc1OCCOCCOc1cc(C)c(C)cc1Br`, which Potency is on record?
The Potency was inconclusive: 29.1 µM [inhibitor, single point].

With `CC(C)(C)c1nc(SCC(=O)Nc2ccc3c(c2)OCCO3)c2ccccc2n1` as the compound, how does the Potency read?
Its Potency is inconclusive: 14.6 µM [inhibitor, partial curve].

For `C=CCNc1nc(NCCOc2ccccc2Cl)c2sc(-c3ccccc3)cc2n1`, which Potency is on record?
The Potency was active: 14.6 µM.

Which Potency does the source give for `CCCCCCn1c(=O)n2n(c1=O)C[C@]1(OC(=O)NCc3ccccc3F)CN(S(=O)(=O)c3ccc(C)cc3)C[C@]1(O)C2` here?
The Potency was inconclusive: 29.1 µM [inhibitor, single point].

Which activity change, negative = growth inhibition does the source give for `COc1c(Cl)cc(C(=O)Nc2ccccc2C(=O)O)cc1Cl` here?
Its activity change, negative = growth inhibition is inconclusive: -30.7% [inhibitor].

Which Potency does the source give for `COc1ccc(CC(N)c2csc(NC(=O)Nc3cc(OC)ccc3OC)n2)cc1` (stereo not given) here?
Its Potency is active: 5.17 µM.

With `COc1ccc(OC)c(S(=O)(=O)Nc2ccc(C(N)=O)cc2)c1` as the compound, how does the Potency read?
The Potency was “inactive”.

For `Cc1ccc(C)c(S(=O)(=O)n2nc(C)c(S(=O)(=O)N3CCC(C)CC3)c2C)c1`, which Potency is on record?
The Potency was “inactive”.

For `COc1ccccc1CNC(=O)CCC(=O)N1Cc2ccccc2Oc2ncccc21`, which Potency is on record?
Its Potency is inconclusive: 29.1 µM [inhibitor, single point].

With `COc1ccccc1S(=O)(=O)Cc1ccc(C(=O)NC2CC2)o1` as the compound, how does the Potency read?
Its Potency is “inactive”.

For `CN(C)c1ccc(CN(Cc2ccco2)C(=O)c2ccc(F)cc2)cc1`, which Potency is on record?
Its Potency is inconclusive: 23.1 µM [inhibitor, single point].

Which Potency does the source give for `CN1CCN(C(=O)c2cnn3c2NC(c2ccccc2)CC3C(F)(F)F)CC1` (stereo not given) here?
Its Potency is “inactive”.

Which Potency does the source give for `CC(=O)Nc1ccc(CN(C)c2c(C)nc3ccc(C(=O)N(C)Cc4ccco4)cn23)cc1` here?
Its Potency is active: 16.4 µM.

Which Potency does the source give for `CC(/C=C/c1ccccc1)=N\NC(=S)NC(C)C` here?
Its Potency is active: 10.3 µM.

Which Potency does the source give for `CN1CCN(C(=S)c2cn(Cc3ccc(F)cc3)c3ccccc23)CC1` here?
Its Potency is inconclusive: 29.1 µM [inhibitor, single point].

For `O=C(NCCN1CCCCC1)c1ccc(Cn2c(SCc3ccc(F)cc3)nc3cccnc32)cc1`, which Potency is on record?
The Potency was inconclusive: 29.1 µM [inhibitor, single point].

For `Cc1ccccc1CN1CCCC(C(=O)Nc2ccccc2Oc2cccnc2)C1` (stereo not given), which Potency is on record?
Its Potency is inconclusive: 18.4 µM [inhibitor, single point].

With `O=c1[nH]c(COc2ccc(Cl)cc2Cl)nc2ccccc12` as the compound, how does the Potency read?
The Potency was “inactive”.

Which Potency does the source give for `COc1ccc(/C=c2/sc3nc(-c4ccccc4)c(-c4ccccc4)n3c2=O)cc1` here?
The Potency was inconclusive: 29.1 µM [inhibitor, single point].

Which Potency does the source give for `CCC(=O)N1N=C(c2ccc(C)o2)CC1c1ccc(OC)cc1` (stereo not given) here?
Its Potency is inconclusive: 6.51 µM [inhibitor, single point].

For `O=C1NC[C@@H](CCCCN2CCN(CC3CCCCC3)C(=O)C2=O)N(CC2CCCCC2)C1=O`, which Potency is on record?
The Potency was “inactive”.

With `CC(C)NC(=S)N/N=C/c1cc(Br)ccc1O` as the compound, how does the Potency read?
Its Potency is active: 4.61 µM.

Which Potency does the source give for `Cc1ccc(-n2ncc3c(=O)[nH]c(SCC(=O)N4CC(=O)Nc5ccccc54)nc32)cc1` here?
Its Potency is “inactive”.

With `O=C(N/N=C/c1cccc(Oc2ccccc2)c1)c1cccc(Br)c1` as the compound, how does the Potency read?
Its Potency is inconclusive: 29.1 µM [inhibitor, single point].

With `O=C(c1cnn2c1NC(=C1CC1)C=C2C(F)F)N1CCc2ccccc21` as the compound, how does the Potency read?
The Potency was active: 11.2 µM.

Which Potency does the source give for `Cc1oc(-c2ccccc2Cl)nc1CS(=O)(=O)CC(=O)NC(C)CCc1ccccc1` (stereo not given) here?
Its Potency is active: 16.4 µM.

For `COc1ccc2c(c1)C(=C(C#N)C#N)C(=O)N2CCc1ccccc1`, which Potency is on record?
Its Potency is active: 3.66 µM.

For `CCOC(=O)c1cc[nH]c1C`, which Potency is on record?
Its Potency is “inactive”.

For `CC(=O)C1=C(O)C(=O)N(C)C1c1ccccc1[N+](=O)[O-]` (stereo not given), which Potency is on record?
Its Potency is “inactive”.

Which Potency does the source give for `COc1ccc(NC(=O)CC2C(=O)N(c3cccc(OC)c3)C(=O)N2Cc2cccnc2)cc1` (stereo not given) here?
Its Potency is inconclusive: 20.6 µM [inhibitor, single point].

With `CN(C)S(=O)(=O)c1ccc(Cl)c(C(=O)Nc2cccc3ncccc23)c1` as the compound, how does the Potency read?
The Potency was inconclusive: 29.1 µM [inhibitor, single point].

Which Potency does the source give for `COC(=O)c1ccc(NC(=S)NC(=O)c2cc(-c3ccccc3)nc3ccccc23)cc1` here?
The Potency was inconclusive: 20.6 µM [inhibitor, single point].

With `COc1ccc(CCNC(=O)C/C(C)=N/NC(=O)COc2ccc(C)cc2Br)cc1OC` as the compound, how does the Potency read?
The Potency was “inactive”.

For `CCOC(=O)C1CCCN(C(=O)CN2C(=O)/C(=C/c3ccc(OC)cc3)Oc3ccccc32)C1` (stereo not given), which Potency is on record?
The Potency was inconclusive: 7.31 µM [inhibitor, partial curve].

With `N#Cc1c(SCC(N)=O)nsc1SCc1ccc(Cl)cc1` as the compound, how does the Potency read?
The Potency was “inactive”.

Which Potency does the source give for `C1CCc2c(nc3nnnn3c2N2CCOCC2)C1` here?
Its Potency is “inactive”.

Which Potency does the source give for `Cc1ccc2nc(Cl)c3cc(C(=O)NC4CCCCC4)sc3c2c1` here?
Its Potency is “inactive”.

Which Potency does the source give for `O=C1CN(CCN2CC(=O)N(Cc3ccccc3)C(=O)C2)CC(=O)N1Cc1ccccc1` here?
The Potency was “inactive”.

For `O=C(NCc1cccnc1)OC1CC2CC1[C@H]1CCCCN1C2=O` (stereo not given in full), which Potency is on record?
The Potency was “inactive”.

With `COc1ccc(C(=O)c2sc(Nc3ccccc3)nc2N)cc1OC` as the compound, how does the Potency read?
The Potency was inconclusive: 25.9 µM [inhibitor, single point].

With `CC(C)OCCCNc1ncc2c(n1)CC(c1ccccc1)CC2=O` (stereo not given) as the compound, how does the Potency read?
Its Potency is “inactive”.

For `Cc1ccccc1C(=O)NC=C1C(=O)OC(C)(C)OC1=O`, which Potency is on record?
The Potency was inconclusive: 32.6 µM [inhibitor, single point].

With `CN1CCc2nc3sc(C(=O)Nc4c(F)cccc4F)c(N)c3cc2C1` as the compound, how does the Potency read?
Its Potency is inconclusive: 29.1 µM [inhibitor, single point].

For `CCC1COCCS(=O)(=O)N1Cc1ccccc1C` (stereo not given), which Potency is on record?
Its Potency is “inactive”.

Which Potency does the source give for `COc1ccccc1NC(=O)c1ccccc1-c1nc(-c2ccccc2OC)no1` here?
Its Potency is active: 14.1 µM.

With `COC(=O)c1ccc2c(c1)C(=O)/C(=C/c1ccc(O)cc1)O2` as the compound, how does the Potency read?
The Potency was inconclusive: 29.1 µM [inhibitor, single point].

For `CN(C)Cc1ccccc1-c1cncnc1NCc1cccs1`, which Potency is on record?
Its Potency is “inactive”.

For `COc1ccccc1-c1ocnc1C(=O)N1CCN(S(=O)(=O)c2ccc(NC(C)=O)cc2)CC1`, which Potency is on record?
Its Potency is “inactive”.

For `CCOC(=O)c1cc(S(=O)(=O)N2CCN(c3cc(Cl)ccc3C)CC2)[nH]n1`, which Potency is on record?
The Potency was active: 11.6 µM.

Which Potency does the source give for `NS(=O)(=O)c1cccc(NC(=O)COC(=O)c2cc(-c3ccc(Cl)cc3)nc3ccccc23)c1` here?
Its Potency is inconclusive: 29.1 µM [inhibitor, single point].

For `O=C(c1c(F)cccc1F)N1CCC(n2nnc3cc(C(F)(F)F)ccc32)CC1`, which Potency is on record?
Its Potency is “inactive”.

With `Cc1nn(-c2ccc(N3CCCCC3)nn2)c(C)c1CCC(=O)Nc1ccccc1F` as the compound, how does the Potency read?
The Potency was inconclusive: 20.6 µM [inhibitor, single point].

Which Potency does the source give for `O=C(CC1CCCC1)Nc1cc(S(=O)(=O)N2CCOCC2)ccc1O` here?
The Potency was active: 8.2 µM.

With `COc1cccc(C2=NN(C(=O)C3CC3)C(O)(C(F)(F)F)C2)c1` (stereo not given) as the compound, how does the Potency read?
The Potency was inconclusive: 16.4 µM [inhibitor, single point].

Which Potency does the source give for `C=CCN1C(=O)C(Cc2ccc(SC(F)F)cc2)SC1=Nc1ccc(C(=O)O)cc1` (stereo not given) here?
Its Potency is “inactive”.

Which Potency does the source give for `O=C(NCc1cccs1)c1cc2c(s1)-c1ccccc1OC2` here?
The Potency was “inactive”.

For `Cc1ccc(-c2cnc(NCc3c(F)cccc3Cl)n2C)cc1`, which Potency is on record?
The Potency was active: 14.6 µM.
